# Assay results as given in PubChem BioAssay AID624417 (National Center for Advancing Translational Sciences (NCATS), 2012).
# Screen size: about 410,000 compounds; about 6,400 (1.6%) were called active. Inconclusive results, whose numbers are uncertain, are shown with a selection of clear calls. Calls follow the shape of the dose curve; as a rule, active = well fitted inhibition curve with a large enough effect; inconclusive = small, poorly fitted or top-dose-only effect; inactive = no such curve, though single readings can be large or run the other way. A potency beside an inconclusive call is a rough fit, not a confirmed value.
# Molecular target: Glucagon-like peptide 1 receptor (Homo sapiens) (UniProt P43220)
# Sequence of UniProt P43220 (P43220 whole entry, looked up): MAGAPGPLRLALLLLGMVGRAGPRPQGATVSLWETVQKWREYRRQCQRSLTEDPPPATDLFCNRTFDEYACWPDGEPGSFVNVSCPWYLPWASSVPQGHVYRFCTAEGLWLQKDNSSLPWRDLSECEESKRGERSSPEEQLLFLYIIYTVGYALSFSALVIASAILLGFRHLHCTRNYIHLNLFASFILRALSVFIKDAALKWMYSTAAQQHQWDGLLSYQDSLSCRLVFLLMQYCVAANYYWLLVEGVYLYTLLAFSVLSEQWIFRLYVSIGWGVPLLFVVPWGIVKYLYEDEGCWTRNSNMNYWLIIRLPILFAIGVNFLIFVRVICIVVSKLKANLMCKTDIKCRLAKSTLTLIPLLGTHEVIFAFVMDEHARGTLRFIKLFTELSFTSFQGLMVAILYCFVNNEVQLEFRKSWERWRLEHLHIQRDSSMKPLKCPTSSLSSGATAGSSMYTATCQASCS
# Assay: qHTS of GLP-1 Receptor Inverse Agonists (Inhibition Mode); also: nearly all actives have a fitted effect of over 55% in size
# Conditions: HEK293 GLP-1R CRE-luciferase, luminescence, 24 h, GLP-1R form is constitutively active; activity change, negative = inhibition: at 38.3 µM (top of the series) unless noted
# Procedure, shortened: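 Constitutively active GLP-1R drives a cAMP-responsive luciferase in stably transfected HEK293 cells; test compounds are added after overnight (12 h) attachment and left 24 hr, and signal loss in luminescence marks inhibition.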
# % is scaled to controls: 0 for no effect and ±100 for the full control effect; potency is read from the fitted curve at half-maximal effect; tags tell the direction and shape of the fitted curve.
SMILES,Potency,"activity change, negative = inhibition"
CCOC(=O)c1ccc(NC(=O)N2CCN(c3cccc(OC)c3)CC2)cc1,"inconclusive: 10 µM [inhibitor, partial curve, poor fit]",
CC1=Nc2ccccc2/C1=C/c1c(C)[nH]c2ccccc12,"inconclusive: 8.91 µM [inhibitor, partial curve, poor fit]",
COc1ccccc1CNC(=O)CN1C(=O)NC(c2ccccc2)(c2ccccc2)C1=O,"inconclusive: 8.91 µM [inhibitor, partial curve, poor fit]",
CN(CC(=O)N1CCc2ccccc21)S(=O)(=O)c1ccc(Cl)cc1,"inconclusive: 20 µM [inhibitor, single point]",
Cc1ccccc1-c1nc(NC(C)C)nc2cc(-c3ccccc3)sc12,"inconclusive: 22.4 µM [inhibitor, single point]",
CCCCCN(C(=O)CCC(=O)OCC(=O)N(C)Cc1ccccc1C)c1c(N)n(CCCC)c(=O)[nH]c1=O,,inactive: 0.84%
COc1ccc(S(=O)(=O)N2CCC(C(=O)NCc3cccs3)CC2)cc1,,inconclusive: -42.4% [inhibitor] [at 7.66 µM]
Cc1nc2cc(-c3ccc(F)cc3)[nH]n2c(=O)c1C,,inactive: -7.04%
O=C(CN1C(=O)c2ccccc2S1(=O)=O)NCCSCc1c(F)cccc1Cl,,inactive: 8.91%
Cc1nc(NC(=S)NC(=O)c2cccs2)ccc1Br,,inactive: -4.44%
CCOc1ccc(/C=N/NC(=O)c2c(-c3ccccc3)noc2C)cc1,,inactive: 16.9%
Nc1nonc1-n1nnc(C(=O)N/N=C/c2cc(Br)ccc2O)c1CSC1=NCCS1,"inconclusive: 7.08 µM [inhibitor, partial curve, poor fit]",
O=C(c1oc2ccccc2c1CSCc1ccccc1)N1CCN(c2ncccn2)CC1,"inconclusive: 12.6 µM [inhibitor, partial curve, poor fit]",
COc1ccccc1-c1ccc(SCc2ccc([N+](=O)[O-])cc2)nn1,"inconclusive: 7.94 µM [inhibitor, partial curve, poor fit]",
CCN1C(=O)[C@@H]2[C@@H](c3ccc(SC4CCCCC4)cc3)N3CCC[C@@]3(C(=O)OC)[C@@H]2C1=O,"inconclusive: 28.2 µM [inhibitor, single point]",
Cc1noc(/C=C/N(C)C)c1S(=O)(=O)N1CCN(c2ccc(F)cc2)CC1,"inconclusive: 14.1 µM [inhibitor, single point]",
Cc1c(C(=O)N/N=C/c2cccs2)nnn1-c1nonc1N,,inactive: -0.638%
CC(C)c1nnc(NC(=O)CCC(=O)N2CCC(Cc3ccccc3)CC2)s1,"inconclusive: 11.2 µM [inhibitor, partial curve, poor fit]",
CCOC(=O)C1=CCN(S(=O)(=O)c2ccc(F)cc2)C1c1ccc(Br)cc1 (stereo not given),"inconclusive: 31.6 µM [inhibitor, single point]",
Cc1[nH]n(-c2ccccc2)c(=O)c1/C=N/N1C(=O)c2cccc3cccc(c23)C1=O,active: 12.6 µM,

SMILES,Potency,"activity change, negative = inhibition"
CC(Oc1ccccc1)C(=O)Nc1cccc(-c2nc3ccccc3[nH]2)c1 (stereo not given),"inconclusive: 7.94 µM [inhibitor, partial curve, poor fit]",
COc1ccc(CCNC(=O)CSc2nc3ccsc3c(=O)n2Cc2ccccn2)cc1OC,,inactive: 3.88%
Cc1cccc(Cn2c(SCc3ccc(C(=O)N4CCC(C)CC4)cc3)nc3ccncc32)c1,"inconclusive: 10 µM [inhibitor, partial curve, poor fit]",
O=C(N/N=C/c1ccc(N2CCOCC2)cc1)c1ccccn1,"inconclusive: 28.2 µM [inhibitor, single point]",
CC(C)Oc1ccc(CNC(=O)Nc2ccc3c(c2)N(C)C(=O)c2ccccc2S3)cc1,"inconclusive: 11.2 µM [inhibitor, partial curve, poor fit]",
CC(C(=O)Nc1cccc(S(=O)(=O)N2CCOCC2)c1)N1CCN(c2ccc(F)cc2)CC1 (stereo not given),"inconclusive: 22.4 µM [inhibitor, single point]",
Cc1ccc(S(=O)(=O)CNC(=S)c2ccc3ccccc3c2)cc1,"inconclusive: 28.2 µM [inhibitor, single point]",
CCN(CC)CCN(C(=O)c1ccc(S(=O)(=O)N2CCCCC2)cc1)c1nc2cc3c(cc2s1)OCO3,"inconclusive: 11.2 µM [inhibitor, partial curve, poor fit]",
COc1ccc(C(=O)NC2CCCc3ccccc32)cc1OC1CCN(C(C)=O)CC1 (stereo not given),,inactive: -6.14%
CC(=O)Nc1ccc(-c2ccnc3c2CC(C)(C(=O)Nc2cccc(Oc4ccccc4)c2)O3)cc1 (stereo not given),"inconclusive: 11.2 µM [inhibitor, single point]",
COc1ccc(N2CCN(S(=O)(=O)CCNC(=O)COc3cccc(OC)c3)CC2)cc1,inactive,
COC(=O)[C@]12CCCCC=C1N(Cc1ccc(Cl)cc1Cl)C(=O)[C@H](CC(=O)NCCC(C)C)C2,"inconclusive: 14.1 µM [inhibitor, single point]",
CCOc1ccc(NC(=O)Nc2ccccc2SC)cc1,"inconclusive: 8.91 µM [inhibitor, single point]",
Cc1nc2ccc(C(=O)N3c4ccccc4CC3C)cc2s1 (stereo not given),"inconclusive: 7.08 µM [inhibitor, partial curve, poor fit]",
CSCCC(NS(=O)(=O)c1ccc2c(c1)OCCO2)C(=O)N(C)Cc1ccccc1F (stereo not given),"inconclusive: 7.08 µM [inhibitor, partial curve]",
Cc1cc(C)c(S(=O)(=O)NCc2ccc3c(c2)OCO3)cc1C,"inconclusive: 7.94 µM [inhibitor, partial curve, poor fit]",
Cc1c(NC(=O)c2ccc3c(c2)OCO3)cccc1-c1nc2ccccc2s1,"inconclusive: 3.55 µM [inhibitor, partial curve, poor fit]",
Cc1nc2ccccc2c(=O)n1/N=C/c1cc(Br)ccc1O,"inconclusive: 7.08 µM [inhibitor, partial curve]",
c1cncc(-c2noc(C34CC5CC(CC(C5)C3)C4)n2)c1,"inconclusive: 11.2 µM [inhibitor, single point]",
Cc1ccc2c(c1)CCCN2C(=O)NC1CCCCC1,"inconclusive: 10 µM [inhibitor, partial curve, poor fit]",
